This is one part of the list. At the low end of the ranking, values are background and their order means little.

The target in the test is SIX1 homeodomain (reference allele) (UniProt Q15475). Description: universal protein binding microarray. The conditions noted are these: Universal all-10-mer PBM (8x60K, AMADID 030236), 300 nM GST-tagged protein, Alexa Fluor 488 anti-GST; buffer, salt, pH and temperature not stated; high values mean tight binding; most listed sequences are background and not binding sites; double strand, one strand shown.
For GGGACGCA, the binding signal is -0.306 E-score. Regarding CCAAATAC, the binding signal stood at 0.0961 E-score.

For ACGGGCAT, the binding signal is 0.0253 E-score. The result for CAGGCACA reads -0.118 E-score; that for CGCTTATA, 0.0407 E-score; that for CCAAAGCG, -0.13 E-score.

With GGGTGGCA, the binding signal is -0.0349 E-score.

ACGCAAGC: the binding signal was -0.0951 E-score. Then ACCAAATA, with 0.119 E-score; and ACCGTCTA, with 0.0488 E-score; and GCTCTATA, with 0.0654 E-score. With AGGCGCAT, the binding signal came to 0.0677 E-score. ATAGGTGC: the binding signal was determined as 0.0708 E-score. Turning to CATTAGGC, the binding signal is -0.22 E-score. Consider CGGAAATA, for which the binding signal stood at 0.092 E-score. On to AGGATAAA, for which the binding signal amounted to 0.16 E-score.

As to AAAGCTGA, the binding signal is -0.123 E-score. As for AAAGCGCA, the binding signal was -0.0808 E-score.

On to CTAGATCA, for which the binding signal is 0.303 E-score. Consider CGATCGTC, for which the binding signal turned out to be 0.0769 E-score. Turning to ATTTACGG, the binding signal was -0.176 E-score. Turning to TGGCGCCA, the binding signal was -0.379 E-score. Take CACTGCTC: the binding signal was -0.0732 E-score. Turning to AATGATCA, the binding signal is 0.113 E-score. CTTGTGCA: the binding signal was -0.156 E-score. In the case of AGCCCACG, the binding signal was -0.147 E-score. Turning to ATCTTATG, the binding signal turned out to be 0.0883 E-score.

For AGTACCAT, the binding signal is 0.0404 E-score. As for CTCTATTA, the binding signal is -0.178 E-score. In the case of GACATTGA, the binding signal is -0.0218 E-score. For the sequence ACCACAAC, the binding signal was -0.0481 E-score.

For the sequence ACTACAGT, the binding signal was -0.065 E-score.

Take CCCGGCGC: the binding signal amounted to 0.0859 E-score.

Turning to GTCTAAAC, the binding signal was 0.0999 E-score. As to AATTGTAA, the binding signal is -0.201 E-score.

Turning to GTGCAAGA, the binding signal was -0.0238 E-score.

For ATACTCAT, the binding signal was found to be 0.297 E-score. For GAAACTAC, the binding signal is -0.253 E-score. CGTTGAAC: the binding signal was -0.145 E-score.

Regarding CTTCGCGC, the binding signal is -0.0997 E-score.

On to CTCCCTGC, for which the binding signal was -0.0895 E-score. As to CCGCAGTC, the binding signal was -0.137 E-score. GTGAACAC: the binding signal is -0.082 E-score. GAGTTTGA: the binding signal was -0.0765 E-score. For the sequence CGCACCCG, the binding signal turned out to be 0.121 E-score. For CGTAACGC, the binding signal is -0.144 E-score.

In the case of AAAGGGTT, the binding signal is -0.0883 E-score. For ATCGCACG, the binding signal came out at 0.207 E-score.

As for TGATTTAA, the binding signal is -0.0863 E-score. As to CAAAACCC, the binding signal is 0.04 E-score. Then ATAGAGTC, with -0.0374 E-score.

Regarding CGGTTTTC, the binding signal is -0.13 E-score. For AGACGGCG, the binding signal is -0.0675 E-score. As to CACTATGC, the binding signal was determined as 0.0958 E-score. Consider CATATCCG, for which the binding signal worked out at 0.426 E-score. The result for TGCGCCAA reads -0.255 E-score; that for GGCCTACA, -0.0413 E-score. Then CGCGCATC, with -0.131 E-score; and GGTTGGAA, with -0.225 E-score. On to GCGAGCCC, for which the binding signal came to 0.207 E-score. For the sequence GCGTGCGA, the binding signal was -0.0337 E-score.

For the sequence ACGCTAAG, the binding signal was -0.132 E-score. In the case of GGCCTTTA, the binding signal is -0.229 E-score.

CACCTGCG: the binding signal came to 0.105 E-score. The result for AGTGAACT reads -0.199 E-score; that for AAGCTTGA, -0.17 E-score. On to CCAAGAAA, for which the binding signal came out at 0.0457 E-score. With GCGAGTTA, the binding signal is -0.0829 E-score.

Turning to CTAGACTA, the binding signal was -0.0397 E-score. With AAACCGAG, the binding signal is -0.0681 E-score.

Turning to ATACCTGA, the binding signal was found to be 0.367 E-score.

On to GATTGTGC, for which the binding signal is -0.0658 E-score. The result for CCGTTCAA reads 0.0578 E-score; that for TACCGTCA, 0.096 E-score; that for CCCTTCTA, 0.0856 E-score. On to CAGCACCC, for which the binding signal is -0.202 E-score. For GCTGTTTA, the binding signal is -0.0313 E-score. As to AATTCTAC, the binding signal was -0.19 E-score. Take CCATAAGC: the binding signal is -0.236 E-score. On to AGGCTGCC, for which the binding signal was -0.205 E-score. For the sequence ACCAACGC, the binding signal is -0.0326 E-score. Then CCTATGTA, with 0.156 E-score; and CAACCACG, with -0.187 E-score. With AGAACCGC, the binding signal is -0.112 E-score.

With CACGTACC, the binding signal was -0.0898 E-score. Take GACCCTCC: the binding signal came out at 0.125 E-score. Take CTCACCTC: the binding signal is -0.00249 E-score. As to CCTGTGAA, the binding signal is -0.0332 E-score. Regarding CCTGTGGC, the binding signal is -0.19 E-score. With CGTGTCCA, the binding signal stood at 0.00655 E-score. Consider AACACCAT, for which the binding signal turned out to be 0.173 E-score.

Take GCTATTAA: the binding signal was -0.00791 E-score. In the case of CATAAAAG, the binding signal is -0.0567 E-score. AGTTTTAG: the binding signal is -0.18 E-score. Then GATCGCGA, with 0.338 E-score.

With CCAACAGA, the binding signal came out at 0.0914 E-score.

As for GGAAAAGA, the binding signal was -0.318 E-score. As for CAATGGCC, the binding signal was -0.303 E-score. On to AGAAACGG, for which the binding signal stood at 0.0744 E-score.

GCTCTTCA: the binding signal is -0.178 E-score.

With CTAAAGAG, the binding signal is -0.0262 E-score. For the sequence ATTTGCGC, the binding signal was -0.13 E-score.

In the case of GGTGGATA, the binding signal was determined as 0.362 E-score.

For ACGACCTC, the binding signal came to 0.122 E-score. Regarding ACTCATTC, the binding signal was -0.00826 E-score. As for GAATCATC, the binding signal was 0.123 E-score. As to TCATAACA, the binding signal is 0.0927 E-score. With ACGCGATA, the binding signal was 0.316 E-score.

With CTGGGAAA, the binding signal is -0.09 E-score. For the sequence CATTCCAG, the binding signal is -0.135 E-score.

As for CACGCAGA, the binding signal was -0.00376 E-score. For the sequence AACAAGCC, the binding signal was -0.269 E-score. The result for CGGGCCAG reads -0.0259 E-score; that for ATGATTGG, -0.201 E-score; that for CGCCCCTA, 0.0534 E-score.

As for AGCAACAT, the binding signal is -0.256 E-score. Then GCGGTGTA, with 0.336 E-score. Then AATGGTTA, with -0.191 E-score; and CGCGCCGC, with -0.026 E-score.

Regarding AGGGAGTG, the binding signal is -0.0527 E-score. Consider CCAATTAA, for which the binding signal was -0.218 E-score.

As to ATTGCTAC, the binding signal was -0.0354 E-score. Regarding AGGGTCGA, the binding signal was found to be 0.138 E-score.

GGACTTAC: the binding signal was -0.197 E-score. Then AAGGTACT, with -0.199 E-score; and ACCGCAGT, with 0.0666 E-score. Then AATCAGAG, with -0.024 E-score; and AGATTGAG, with 0.0691 E-score; and CGAGCTGC, with -0.0379 E-score. Then CTCATCAA, with -0.00447 E-score; and GCTCACCA, with 0.0132 E-score. For the sequence AGTGTACG, the binding signal was 0.0873 E-score. For ATTTGGTG, the binding signal came to 0.118 E-score.

As to ACTGAAAG, the binding signal was -0.149 E-score. On to CTGCGACA, for which the binding signal was -0.0119 E-score. Then TGAACGCA, with -0.0861 E-score; and ATTGGGAA, with -0.105 E-score. CTGCACAA: the binding signal was -0.0295 E-score. Take CCGGGGGC: the binding signal is -0.132 E-score. With CGAACGAG, the binding signal was -0.134 E-score. In the case of ATTCTACC, the binding signal came out at 0.048 E-score. The result for CAAGATAG reads 0.0971 E-score; that for AACATGGT, 0.0399 E-score. With AGGACCGG, the binding signal is -0.138 E-score. Then GCGACAAC, with -0.329 E-score. With TCCGCGAA, the binding signal was determined as 0.0318 E-score. On to GCCTATCA, for which the binding signal was determined as 0.289 E-score.

ACGGAGCA: the binding signal was -0.0304 E-score.

Take GCCAGGGC: the binding signal is -0.176 E-score. In the case of GGGGGTCA, the binding signal came to 0.0355 E-score. Then GTCAGTCA, with -0.176 E-score. With AGTTTAAC, the binding signal is -0.0126 E-score. As for CCGTGTCA, the binding signal worked out at 0.344 E-score.

CAGTTATG: the binding signal was -0.126 E-score.

Regarding GCACCCAC, the binding signal is -0.0835 E-score. As for CCATCCGC, the binding signal turned out to be 0.112 E-score. With CGGGGTTC, the binding signal turned out to be 0.181 E-score. As for CCAGCGCA, the binding signal was -0.0754 E-score. Consider CGTCTGTA, for which the binding signal was -0.0985 E-score. Consider AGGTCGAG, for which the binding signal is -0.311 E-score. Then ACTAAATC, with -0.107 E-score; and AAAGATAA, with -0.12 E-score; and GAAAGCGA, with -0.0978 E-score. For ATGATTCA, the binding signal was -0.147 E-score. For AACAAAAC, the binding signal was -0.126 E-score. Then CCGACTCA, with -0.0758 E-score; and TATGCGAA, with 0.164 E-score. The result for CACTGCCC reads -0.222 E-score. Take GATTCCAC: the binding signal came to 0.142 E-score.

As to CGTAGCAA, the binding signal was -0.117 E-score.

Regarding ATCTTCCC, the binding signal was found to be 0.174 E-score. The result for CGATGCAA reads -0.0562 E-score.

Values taken from paper PMC10668032.
